Assay results published in article PMC10726135.
The other results are listed elsewhere or left out. At the low end of the ranking the order means little. The protein was read in a cell extract, so binding may be indirect.

molecular target: T1, HNF4alpha8 (COS-7 nuclear extract) (UniProt P41235-5); assay: protein-binding microarray; details: COS-7 nuclear extract on double-stranded Agilent 4x180k PBM; binding buffer, salt, pH and temperature not given; high values mean tight binding; double strand, one strand shown; sequences stand for … in …GCCTAGGGAGATTAGAGTATCGGTCGA
T1 sequence: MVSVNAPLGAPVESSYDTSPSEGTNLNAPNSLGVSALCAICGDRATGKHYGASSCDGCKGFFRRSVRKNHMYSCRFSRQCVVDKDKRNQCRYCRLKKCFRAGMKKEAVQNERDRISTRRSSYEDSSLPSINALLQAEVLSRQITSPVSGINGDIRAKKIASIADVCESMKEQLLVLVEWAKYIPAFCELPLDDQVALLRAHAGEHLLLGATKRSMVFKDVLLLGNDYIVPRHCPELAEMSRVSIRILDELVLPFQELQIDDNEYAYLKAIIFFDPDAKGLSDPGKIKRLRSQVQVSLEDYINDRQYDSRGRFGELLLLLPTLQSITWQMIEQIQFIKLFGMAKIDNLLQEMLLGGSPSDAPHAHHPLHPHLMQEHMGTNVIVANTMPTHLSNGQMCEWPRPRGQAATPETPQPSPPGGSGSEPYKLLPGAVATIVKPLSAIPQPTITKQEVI

| Sequence | binding signal (log2 normalized intensity) |
| --- | --- |
| TACAAAGTTCACTTTCTTGTTTACTCACCT | 1.78 |
| CTTTTTGACCTTGCAGTGGCAAGGCAAAAG | 2.28 |
| GAGAATCCACCTGCCTGCTTGGCCTCTCCA | -1.28 |
| TTTCACAAGTTTAGCCAAGCAAACAAGTTC | -1.38 |
| TGAATGGACTCTGCCCTTAGCAGTGGGAGA | 4.92 |
| TCTGCCGCTGCGCCACAGCACCACCTGCTG | -1.27 |
| TTAGTCCCAGTATGGTCTCAGTAATGACAT | 1.06 |
| AAAGCAACAAAAACCAAATCACAATTTTCA | -1.43 |
| CTTACATGGGTTAGGAGGATGACAAAGAGC | -0.166 |
| ATGAAGATATATTCCTTCAGGAAGGCCTGT | 0.756 |
| GTATGTTCTTAAGATAAGGACTGTTGGACC | 4.24 |
| TTTTTGTGTGTGTGTCAGAGACCCAGAAAA | 1.54 |
| TGGCTAATAGATGGCGCAGCGGGTCAATTA | 2.6 |
| AGCTGGGCCTGTGCTGGGGACAAAAGCTGA | -1.18 |
| AAGTTAACTTTGTAACTAACAACTGACCTT | 4.32 |
| ATAAGCCCTGAGTAGTTCTTCTGGTTAGTT | 0.74 |
| CAAACCAAAGAGAAATGGTGTGGACAGCAG | -1.31 |
| TGTTAGCAGAAACCATCTGGCTTGGCCCCC | 4.14 |
| GGTAGCCTGGGTTAAAGTCCGTTACAGACA | 4.18 |
| GTGGGGCAGAAAGGGCATGGATTTAGATAA | -0.823 |
| TACATAGAGGGGGTCTAGGTTGGAGGAGCT | -0.892 |
| ATGGGCACCTCGTCCAGGTGTCTTCAGGCT | -1.31 |
| AGTGGAAGGTATGGAGCTAAACAATTAAAG | -1.29 |
| AATTGTGGCTTGTGTAGTTATCCAGTAACA | 0.907 |
| AGGCAGGAGTTAACTAACAAAAGCAGAGGA | -1.37 |

| Sequence | binding signal (log2 normalized intensity) |
| --- | --- |
| ACTCCTCTATCAGTACAAATAAACCTTTGA | 4.33 |
| TGTCCCCCAGGTCCAGCCTTTGGGCAGGGG | 2.55 |
| GCTGCCTCCTATCCTCTGATCCCCAGGTCA | 2.87 |
| TGTCATCTCTGGCTAACAGGTCAGGGGCTC | 0.515 |
| ACTCAGTGGGGTGTCTGTGTGCCTCAGATT | 1.01 |
| TGAACCTTCTTCTTGCAGTCCACATTTCTG | 1.16 |
| GGTGGACTTTGTAGCTCAAACAGTCTAAAA | 2.85 |
| ATAAGAACGCTAGACACTGGGGACTAGTAG | -1.19 |
| CTTGGCCCCCGGACCCAAAGTAAACAAAGA | 3.96 |
| TCAGTGCAATCACGCCTCAAATGAGCTTTT | -0.634 |
| GCCTTGCTGCGGATCAAAGGAGCTGGGCCT | -1.33 |
| GTTAAGTCATTGATGAAACTCCTTCCCTTT | 0.746 |
| CCCACATCCTGTCAGACCAAGGCTGCTTAA | -1.29 |
| GTAAACATAGCAGAAGACCCTTGGCCTCTA | 4.15 |
| GGGCTGGCTCAGGACAGGTGAGCCCGGCAG | -1.22 |
| TACTTCCTTCACTCTGGGGCAATAACCCTA | 0.964 |
| GCTCAAAATAGGCAAGACTGCCACCTACTG | -1.44 |
| CATCTGAGACTAACTGCATTTTGGAGATAA | -0.198 |
| AAAGTGGAAGAATGGGAAATTCCATCCTAG | -1.24 |
| TCAAAATATAAGGTCCAACTGACATCTGGA | 1.18 |
| GCTTTAAGAGGAATGCTTTGAGCCAGAATC | -1.07 |
| TTGAGTGACCTTGGGCCAGTCGCTTAACCT | 2.28 |
| CTCTCGTCACCTCCACCCACCCGTGCATCA | 4.48 |
| GTACTTCAACCAGGTTCTCTTTACTGAACG | 1.54 |
| TGCAGTGTGTCTCCAGGAGCAATCATCGCA | -1.11 |

| Sequence | binding signal (log2 normalized intensity) |
| --- | --- |
| TTCTGAGTTGCATGAATTTATCTAAGTAGA | -0.142 |
| GCAGGAATGCTGAACAATTGATTTATAGCC | -0.997 |
| CCCGTGTAGACACTCATCCCTTGCACTGCT | -1.08 |
| TCGGAATGTCTGGGCAAAGGGGAGGTTATC | -0.858 |
| CTGTTTGGTATCTACTCGGCAAAACGGAGA | -0.739 |
| AGGTCAGCTTGTCCAGAGTAGGCTTGCAAG | -0.885 |
| CTCAAGGCCTTGGCTTGGAACTGACATGCT | -1.23 |
| AAATCTTACCTAAGGAAGTTAACCCCATCA | 3.07 |
| CATGAAGCAATTCTGAGCCCAACCTCCCCA | 4.12 |
| TCTTCAATACAGAGTCCAAATTCCTTGGTA | 3.67 |
| TCACCAAACTTCACAATGGGCCCCAGTAAA | -1.29 |
| ATTTTCCCACTTGTATGTCCAAGGGTCACT | 5.52 |
| GCAAAGTACAAAGTACAGAGATGGCACAGA | 3.53 |
| CTCAGCGGGAGGCAAGATAAGGGTAATCAC | -1.39 |
| TCACTTTTATCACCATCTTGGTTTTGGTGG | 2.15 |
| TGCTAAGAATGCGAACCATTTCCCATGGGA | -1.38 |
| ATCTGTATCAGCCTGTGACAAAGTCCATCT | 5.65 |
| TGTGGCAAAGGTGAATGACCCCTCCCCTCC | 5.93 |
| GGAGTGTCTTTCAGGAAGGAATAAAAGGCT | -1.18 |
| CCTCCTTAGGAAAGAGACATCTGGGAACAA | -1.34 |
| GACAGTCTCCAAGGTTATTATATTGTGGGT | 1.61 |
| TTTCCCTAGCTTATATCCCCTGCCTGGGTC | 1.83 |
| CTGAACATAATTGCAAAATCCTTAGCAAAT | -1.25 |
| TATGAGATTCCCAGAGAGCTCCCCAAAGGG | -1.37 |
| AAATGGAGTGGCCTTTAGAACCGGGGAGAT | 0.895 |

| Sequence | binding signal (log2 normalized intensity) |
| --- | --- |
| ATTAGATGATAAGGGTGAAAAGATAGCTTG | -1.34 |
| CAGGATTGGAGATCTGAACTCAAGCTCTTA | -1.18 |
| AGCACTGGCATGCAGCAGGGGAATGGAGAC | -1.33 |
| CCAAAGTCCAAGTTGGTGAGAACAGAGTCT | 1.2 |
| AGGCTGAAGTCCAGTAGCTCAATCAAGGTT | -0.327 |
| AACATTATGAAATCTTATCAGAAGCTTACA | -1.29 |
| TCTGTGGATGTATGTCCAGATAACTCTTGT | 0.86 |
| TGGACAAGGAGGCTGGGCTGCATAGAAGAA | -1.36 |
| TCTTGCCTTTGCTCCTCAAAAACATTCCCC | 1.65 |
| CTGATAAGATTCAGAACCCATTAATTTAGC | -1.27 |
| TGGCTAGTGACTCAGAGCATATGTTGACCC | 5.33 |
| CTTTCCTCCCACCTTCGAGCTTCACCTTTG | 1.89 |
| AGAGAGCAATCATGCACCTGCGGATAATCA | -1.44 |
| ATTGGGGGAGGGTAGTCTATCTCATTACTA | -1.2 |
| AAGAACACAGTGTAGAAGGCAAGGGTCAAG | 2.65 |
| CTGTGCTGCCCTTTGCCCTTTGGGAAGGGG | 6.59 |
| GACTAGACAGGCTTGTCGAGGACAGGATGG | -1.23 |
| TCCTGGTCAGACTTGCCACGGAATCCCAGT | -1.37 |
| ACAACGCCAAGGACCGCCAAGGAAGCGATG | -1.31 |
| GTTCCGCGGTCCGCAGCGCTGGTGGCTGCA | -1.11 |
| CTGAACAGGGTCAGTGCAATCACGCCTCAA | -1.33 |
| CTCATGTGGTCCTAAAATTGACCTTTGATC | 11 |
| GCCTGGCTAAAACCCTGGCCACTCCCTGAT | -1.27 |
| TTGGCTAAAGTCCAAATTCCTTGGAATACA | 3.86 |
| ATTCCATCATCACGGTGGACATTGTCCAAG | 3.69 |

| Sequence | binding signal (log2 normalized intensity) |
| --- | --- |
| TGACCTCTGCTTCCTGCTACAGAGCTCAGA | -0.0974 |
| CTTGGGAAAGGAGAAGCTGGAGATAAGGAT | -1.31 |
| ATGTACATGGACTTTGAACCAAGATATGCT | 7.68 |
| AATAAATAACTCTAAGAAATAGGTTAAAGA | -1.03 |
| CACCGTTGGAATGTTCCAAGACCTTTGAAG | 1.91 |
| ATAAAGTGGATGGAGCAATTCAACAACTGT | -1.12 |
| TTTAAGTAAGCCCCCTTCCCCCCTGGGCAA | 4.69 |
| CACGCCCACCCTATTGATGCAAGGACAATG | 1.99 |
| ATTCAGAATAGTTAAGTAACGTGTCAGAGG | 1.14 |
| CTGATCAAATTCCACACCCCCCACTCTTCA | 4.44 |
| GTGCTAGCTCCGACTCAGTGGGGGGGGGGG | -1.47 |
| CAAAAGTTCAAACTTTATTTGATGATGAAG | 0.503 |
| CTGATAGCGAGTTATCTGCATTCCAGCTCA | -1.4 |
| GGAGGAGAGAAGGGCTGAAGGTTAATTCGC | 0.88 |
| GCCGGGTCACGTGGGTCCAGGGTCACGTGC | 3.37 |
| ATGTTTCAAGTGGCCTGATTTGACAAGGCA | 0.063 |
| TAAAACAGTCCATTTCAGTGAACTTTTCAA | 1.75 |
| AATGCTGTTAGCACTCAGTCATTGCCATCT | -1.25 |
| GATACAGATAAATAAATCAAGATCACTGCC | -1.39 |
| CCTATAGCCTCACTTGCTGATAAGGCAGAC | -1.29 |
| TCTGCGCAGGGAGGAGCGCATCGGGCGCCA | -1.35 |
| CTAGGAGATACGCCTGAACTTTGATCAGCA | 6.55 |
| GGAATGCCCTTATCTCCCAGCCACCAAATC | 2.58 |
| GACCAACAGAGAAGGCCCTGAACTCCCAGC | -1.39 |
| GGGAAAACTGATAAAGGGTGAGTGCATGAA | -1.29 |

| Sequence | binding signal (log2 normalized intensity) |
| --- | --- |
| GAAGGAATGTAAACTCCAAGGAGCAAATCC | -1.35 |
| CGACCTTTGCTCCCGACTCTGAGGCTCCAT | 5.96 |
| GATAAAGGGTTACAAACTTCAAGGTCCATT | 2.32 |
| GGGGCCTTTAGCACCTTCATCCAAAGATGA | -1.32 |
| GGCCAGGCCAAATCAGAACTGAGTTACTTG | -1.35 |
| TTGACTCAGTTGCAGAAAAACAGGTTCTGC | -1.2 |
| ATCCAGCAGACTTAGACCCTGACCTGGCAT | 2.51 |
| GGTCAAGCCCAACCAAAGTAGAGGAATGCT | -1.27 |
| GGCTTTATGACCAGTGTGTTGTGCTGACCT | 3.74 |
| CCAAAGTCCATGTTCATAACTGTTAAACTC | 1.98 |
| GGCTGATATCTCTCTGGCTGGTGGGCAAGT | 0.457 |
| CTATGTGGTTTTGTAAATATAGGATCATGT | 1.66 |
| AGATTCCTCTGAGTCCTCTTCCCAACTTGG | -1.18 |
| CAAATCCAGGATCAAATACAGAATCAATGC | -1.3 |
| GCCCTCTTGGTATCAGCTTTGAGACACCTG | -0.0925 |
| AAAAGCAAACCAAAAAGTTGGTTGGAGCTA | -1.16 |
| GCAGCTCAGACTGCTTCTCTGCTGGGGCCC | -1.34 |
| GTCATTAATTAACTTGTGTTCAGAGCTTGC | 0.859 |
| ATGGGAACATTCCTCAGGGAATTTCTAGGT | -1.39 |
| TGATAAGATTTATCTCTCCAAGGTACTGTG | 0.189 |
